# In the supplement of paper PMC11417369:
# ± gives the standard deviation of the averaged measurements. This is one part of the list.
# Test system: PfAP2-I AP2 domain 3 (GST-tagged)
# Assay: gcPBM binding intensity (ln(normalized median fluorescence intensity)); higher = stronger DNA binding
# Procedure, shortened: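 Using an Agilent 4 × 180k array, primer-extended double-stranded 36-bp intergenic genomic probes and negative controls were exposed for 1 h to GST-fused P. falciparum DNA-binding domains expressed in E. coli. Binding was carried out in 1× PBS with 1% milk, 0.2 mg/ml BSA, 0.5% salmon testes DNA and 0.03% Triton X-100, and protein was detected with Alexa488 anti-GST antibody and a 488 nm scan. Binding intensity is the highest Masliner-normalised natural-log median intensity across replicate spots of either probe orientation.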
row,Sequence,gcPBM binding intensity (ln)
1,AGAAATATCTAATTGTGTACTCAAGAAAAAGTTACG [XGTACX_site372],7.99 ± 0.28
2,GGTAGTTATTATCTCCGTACTTATAAAGAAAAAAGG [XGTACX_site4674],7.92 ± 0.7
3,ATATTTTATATGTTCACACATACATAAACATATTTT [CACACA_site4948],7.82 ± 0.6
4,GAATAAAAATTTTAATGTACATATTTTTTATTTATA [XGTACX_site8935],7.61 ± 0.36
5,TACAAATATATAAAATGTACATATATATACATATTA [XGTACX_site3029],7.46 ± 0.27
6,TTTATTTTCATATGAACACACATATAAATATTATAA [CACACA_site7172],7.87 ± 0.41
7,TTTTTATTATTTAAATGTACATATAAATATATATAT [XGTACX_site6870],8.76 ± 0.43
8,CTTACAGACATATATACACACATGTATATTTTATAT [CACACA_site549],7.79 ± 0.49
9,AAGAAGAAACGGAAAAGTACAAAGAAGAAATAAGTA [XGTACX_site3680],8.07 ± 0.64
10,GAGGATGCCTATGGCACACATTATAAAACTGTCGCT [CACACA_site4322],8.15 ± 0.56
11,ATGTTTTTAATTTATTGTACATTAATTTGTATTATT [XGTACX_site253],7.92 ± 0.6
12,TTTTCTTTTCTCTTCTTTTTCTCCCATTATTAATCT [XGTACX_negctrl_site406],7.5 ± 0.55
13,ATTTCATTTATAAGGATATCTACTTTTTATTTTAAT [GTGCAC_negctrl_site59],7.56 ± 0.69
14,AAACGAAAAAAATGGTGTACATTAAAATGAAAATTG [XGTACX_site7040],7.91 ± 0.59
15,TCTATCTTTTCCAAACGTACATTTTTTATATAAATT [XGTACX_site5352],7.93 ± 0.6
16,TATTTTCCCTCCATATGTACTTAATTATAAGCACAT [XGTACX_site4000],8.71 ± 0.18
17,ATATATATCTTTTGTGTGCACATATATATAATATAT,9.79 ± 0.22
18,AAAAAAAAAATATACACACACACATACACATAAATA [CACACA_site3808],7.94 ± 0.37
19,TTATATTCTATTTATTGTACTTAAATATATATATAT [XGTACX_site6400],8.98 ± 0.23
20,TATATATCGCATAAAACACACAAAAAAAAAATTAAA [CACACA_site7767],7.72 ± 0.33
21,ATAAAATACATATAAACACACATATAAACCGACATA [CACACA_site2477],7.99 ± 0.42
22,TAAACATAAATATGCACACATATACAGATATTCATA [CACACA_site5471],8.645 ± 0.049
23,TTTTACTTAAGACACACACACACAAAAAAAAAAAAA [CACACA_site6573],8.23 ± 0.31

row,Sequence,gcPBM binding intensity (ln)
1,AGTTTTTACTCTAATGGTACAGTGCAACTAATAAAT [XGTACX_site6950],9.23 ± 0.085
2,TTTATGTAAAAATATAGTACATATTAAAAGATAAGA [XGTACX_site8134],8.03 ± 0.44
3,ATATATTCCATAAAGGTGCTGTTAACGTGTCAACGT [GTGCAC_site9402],8.81 ± 0.57
4,TAAGTATACACATACACACACACACTAAAAAAAAAA [CACACA_site6337],8.12 ± 0.32
5,ACTTTATTTTCCTGTACACACATTTGACATATTAAA [CACACA_site3378],8.8 ± 0.57
6,AAAAACAAAAAAAAAACACACAATTCTAGTTATTTT [CACACA_site2767],7.26 ± 0.69
7,CACCAAACTAAATGTACACACATACATAAATATAAA [CACACA_site4765],7.99 ± 0.2
8,TTTTTTTTCCTAATGTGTACTAAAAATGAACAATAA [XGTACX_site5248],8.16 ± 0.23
9,AAAAAAAAGAAACACACACACATACACATAAATATA [CACACA_site3807],7.83 ± 0.5
10,ATATTTTTTTCATAGACACACACAATATATCTGTTT [CACACA_site8993],7.96 ± 0.52
11,TTTTTTATTTTATTTTATTTTTATTTTTTTTTTTTT [GTGCAC_negctrl_site596],7.53 ± 0.16
12,AACATTATTTTGTGTACACATTCGGTTATATTATAT [CACACA_site5628],8.41 ± 0.59
13,ATAACATATTTCTTTTGTACTCAAAATAAAATTAAT [XGTACX_site2479],7.79 ± 0.29
14,AAATATATTTTATTTTGTACTTATGTATAAAATATA [XGTACX_site914],7.53 ± 0.3
15,AATTTTGTTGAGCACACACACATACATACATACATA [CACACA_site3154],8.61 ± 0.38
16,ATTAAATTTCCTTGAGTGCACATTTTGTTAAAATAT,10.05 ± 0.099
17,ACGTGATAAATAAATACATGCATAGAAAGATGCATA [TGCATGCA_site91],7.68 ± 0.49
18,TATATATATATATATTGTACTAGTGCATATATATAC [XGTACX_site7926],10.7 ± 0.73
19,TACAATGAAAAAATAACATGCAATTATATTTCTCTT [TGCATGCA_site833],8.23 ± 0.74
20,TTTAAATATTTTAATACACACACGATATGTACAAAA [CACACA_site4455],8.01 ± 0.35
21,ATTTTATTTTCTCACACACACATATATATATATATA [CACACA_site5781],9.4 ± 0.54
22,ACATATGTTAAAAAGGCATGCATTCTTTTTATTTTA [TGCATGCA_site1043],7.66 ± 0.83
23,TTTTTTTTGGTATAATGTACATTTTCACTTATGTAT [XGTACX_site3259],8.12 ± 0.67

row,Sequence,gcPBM binding intensity (ln)
1,ACCAAAAAAAAAAAAAAAAAAATATACATATATATA [GTGCAC_negctrl_site582],8.12 ± 1
2,GTGCCATTTAAAAAATGTACAAGAAAATGTTCATCA [XGTACX_site2865],7.96 ± 0.39
3,TGGTATTGAATTTTTTGTACACATAAAATATATATA [XGTACX_site7614],7.98 ± 0.54
4,TATTTTAATTTTTTTTTGTTTTTTCTAATACATGTA [CACACA_negctrl_site1399],7.33 ± 0.72
5,TCCTTTATTTTTAAAGTGCATATACATGTACATTAT [GTGCAC_site9445],9.675 ± 0.078
6,GAAGAAAAAAAATATACACACATACGATCATACATA [CACACA_site5227],7.49 ± 0.52
7,CAGCTCTTAAGAATTACACACATATACACATATATA [CACACA_site7524],7.72 ± 0.53
8,ATACATAAATACAAACGTACATACATACATACATAC [XGTACX_site7824],8.98 ± 0.35
9,GCAACACAAAAAATTACACACAAAAAAAATATATTA [CACACA_site916],7.75 ± 0.21
10,AAAAAAAAAAAAAAATGTACATATGGTATGCATATA [XGTACX_site3225],7.99 ± 0.37
11,GCTTATAAAGGCAGAAGTACTGTATTCCTATATATA [XGTACX_site8865],7.61 ± 0.4
12,AATAATAAAAAATATACACACATATATATATATATA [CACACA_site25],9.1 ± 0.72
13,TTGGCATACGGACACACACACACACCCAGACATATA [CACACA_site4492],7.91 ± 0.46
14,TATACCTATAAATACACACACATATAAATAAATATA [CACACA_site6153],7.83 ± 0.43
15,TTATACAAATTCATGGGTACAAACAAACATATATCA [XGTACX_site6237],7.93 ± 0.56
16,AAAATATATACTCCATCACACACCAAAAAGAAAAAA [CACACA_site2542],7.71 ± 0.52
17,ATTCAAAAGATGTATACACACATGTGTATAATATAA [CACACA_site7197],7.88 ± 0.59
18,AATAATATATATATAATACACACTATTATAATCACA [CACACA_site1310],7.76 ± 0.44
19,TTTTTTTTTTTTTTTTTTTTCATTCAATTATATTTA [CACACA_negctrl_site712],8.18 ± 0.74
20,TTATCACATAAACGATGTACGTACTAGGTTTTTTTT [XGTACX_site2147],7.67 ± 0.69
21,TGAATAATATACATACGTACATACATATATATAATA [XGTACX_site1302],7.86 ± 0.26
22,ATAAAAAGGAAACACACACACACACCCATATATATA [CACACA_site904],8.52 ± 0.55
23,AACTAATATAATAATACATGCACATAAAAATATATA [TGCATGCA_site606],8.19 ± 0.39

row,Sequence,gcPBM binding intensity (ln)
1,AAAGGAATATAATGATGTACACAAATATATATACAT [XGTACX_site5347],7.99 ± 0.37
2,TATTTTTTTATTTGTGCATGTCATATTTAAACATAA [TGCATGCA_site1006],8.5 ± 0.68
3,CACGCATACGGACACACACACACACCGATATATATA [CACACA_site4521],8.29 ± 0.63
4,ATATAAAAATTAAAATGTACATATCTTATTATAATA [XGTACX_site983],7.7 ± 0.5
5,CAACATAAAAATTAAGCATGCAATAGACTTGTGTTG [TGCATGCA_site417],7.53 ± 0.96
6,TAATAAAATAATATCACACATATTTATATATATTAT [CACACA_site5814],7.42 ± 0.5
7,GTTTAAAAAAATTATCAACTTTAAAAAGGTAACATT [XGTACX_negctrl_site203],7.74 ± 0.42
8,GTAGTAAATAGGAGGATGCATATGGCACACATTATA [TGCATGCA_negctrl_site59],9.8 ± 0.26
9,TTTAATAAATAAATAAATAAAATATATTAAAAACCA [CACACA_negctrl_site80],7.46 ± 0.52
10,ATATTTTATTATTGTTGTACTTTTTTTTTTTGATTG [XGTACX_site4091],7.97 ± 0.61
11,ATAATATGAAAACACACACACACACTAATAAAAAAA [CACACA_site8617],8.03 ± 0.62
12,GGCAACAATGTAGATTGTACATATGAATTTTACAAT [XGTACX_site5655],7.66 ± 0.45
13,ATATTTTGTTTTATAGTGCACATGGGCATATATTAA [GTGCAC_site9435],11 ± 0.32
14,ATATATATTATCATTGTGCACTTATTTATATACCTT,11.1 ± 0.15
15,TTTACTTTTTTTTCTTGTACTCATACATACTATCAT [XGTACX_site4919],7.84 ± 0.83
16,AAATTTCAATAATCTACACACATAAAAAAACAAAAG [CACACA_site1702],8.14 ± 0.35
17,AATTATTTATCGGAATGTACATAAAAACATATGTAT [XGTACX_site7443],7.99 ± 0.4
18,AATAATATCATTTAGACACACACTCTTACAATATGT [CACACA_site8832],7.79 ± 0.6
19,ACCTACATAACATACACACGCATATATATAATTTTA [CACACA_site2847],8.51 ± 0.26
20,TATTTAATAAAGAAATAAAAATAAAGAAAAAAAAAA [CACACA_negctrl_site74],7.82 ± 0.58
